Measurements reported in PubChem BioAssay (NCATS).
The inconclusive results got no clear call from the source; some entries with a clear call stand among them for comparison. No potency is given beside an inconclusive call; the fits are too rough. Calls of active or inactive are those of the source. The call rests on the fitted dose curve; in most records, active means well fitted inhibition curve with a large enough effect in the repeat runs; inconclusive means weak or mixed curves; inactive means flat fitted curve, though single readings scatter.

Target: Cytochrome P450 2D6 (Homo sapiens) (UniProt P10635)
Chain of UniProt P10635 (P10635 whole entry, looked up): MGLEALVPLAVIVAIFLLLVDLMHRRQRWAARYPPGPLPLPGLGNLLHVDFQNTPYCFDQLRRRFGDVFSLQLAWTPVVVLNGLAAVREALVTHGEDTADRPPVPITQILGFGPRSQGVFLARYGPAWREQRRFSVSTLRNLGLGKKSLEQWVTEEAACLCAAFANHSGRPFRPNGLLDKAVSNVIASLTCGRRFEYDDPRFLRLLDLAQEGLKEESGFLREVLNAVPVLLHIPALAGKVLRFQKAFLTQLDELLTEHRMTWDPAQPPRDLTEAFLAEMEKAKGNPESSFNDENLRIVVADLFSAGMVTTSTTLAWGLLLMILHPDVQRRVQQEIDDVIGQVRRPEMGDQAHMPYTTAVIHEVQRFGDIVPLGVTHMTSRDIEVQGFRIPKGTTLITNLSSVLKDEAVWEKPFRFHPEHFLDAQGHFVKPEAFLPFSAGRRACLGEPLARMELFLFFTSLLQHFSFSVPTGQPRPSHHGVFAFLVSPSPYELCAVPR
Assay: Cytochrome P450 family 2 subfamily D member 6 (CYP2D6) small molecule antagonists: luciferase biochemical (cell-free) qHTS assay (AID 1645840); further: nearly all actives have a fitted effect of over 55% in size
Conditions: P450-Glo CYP2D6 enzyme, luciferin luminescence, 1 h; series mostly up to 57.4 µM
How it was run: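 P450-Glo CYP2D6 system: proluciferin substrate converted by enzyme to luciferin, read by luminescence proportional to activity. Enzyme-substrate mix with compound 10 min at room temperature, then NADPH regeneration 1 h before detection reagent.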
Potency means the concentration at half of the fitted maximal effect; tags describe the fitted curve by direction and shape.

**Q.** With COc1ccc(CNC(=O)c2nc(SCc3ccccc3F)ncc2Cl)cc1 as the compound, how does the Potency read?
**A.** Its Potency is inconclusive [inhibitor, full curve].

**Q.** Which Potency does the source give for CCOC(=O)c1nnc(NC(=O)C2=C(C)NC(Nc3nc4ccccc4o3)=NC2c2ccccc2Cl)s1 (centres undefined) here?
**A.** Its Potency is inconclusive [inhibitor, single point].

**Q.** For CCOc1ccc(CCNC(=O)CCCn2nc(C)c3sc4ccccc4c3c2=O)cc1OCC, which Potency is on record?
**A.** The Potency was inconclusive [inhibitor, partial curve, poor fit].

**Q.** Cc1ccccc1C(=O)Nc1sc2c(c1C(=O)O)CCC(C(C)(C)C)C2 (centres undefined) was tested. Which Potency did it give?
**A.** Its Potency is inconclusive [inhibitor, single point].

**Q.** With COc1ccc(NC(=O)CSc2nnc(NC(=O)NC3CCCCC3)s2)cc1OC as the compound, how does the Potency read?
**A.** The Potency was inconclusive [inhibitor, single point].

**Q.** CCc1ccc(OCCn2c(C3CC(=O)N(Cc4ccc(F)cc4)C3)nc3ccccc32)cc1 (centres undefined) was tested. Which Potency did it give?
**A.** The Potency was active: 3.01 µM.

**Q.** Which Potency does the source give for Cc1ccc2nc(NC(=O)CSc3nccn3Cc3ccccc3)sc2c1 here?
**A.** Its Potency is active: 8.49 µM.

**Q.** CC(=O)c1ccc(NC(=O)Cn2cc(S(=O)(=O)Cc3ccccc3Cl)c3ccccc32)cc1 was tested. Which Potency did it give?
**A.** Its Potency is inconclusive [inhibitor, partial curve].

**Q.** N#Cc1ccccc1Cn1nnc2c(=O)[nH]c(C3CCCN(S(=O)(=O)c4ccc(F)cc4)C3)nc21 (centres undefined) was tested. Which Potency did it give?
**A.** Its Potency is active: 0.849 µM.

**Q.** Which Potency does the source give for CC(C)c1ccc(NC(=O)CSC2=Nc3ccccc3C3=NC(CC(=O)NC4CCCCC4)C(=O)N23)cc1 (centres undefined) here?
**A.** Its Potency is inconclusive [inhibitor, full curve].

**Q.** How did the Potency turn out when Cc1cccc(N2CCN(C(=O)CCC(=O)NNc3nc4ccccc4c4nc(C)nn34)CC2C)c1 (centres undefined) was run?
**A.** Its Potency is inconclusive [inhibitor, partial curve, poor fit].

**Q.** For Cc1cccc(Cc2c(C)nc3c(-c4ccccc4)c(C)[nH]n3c2=O)c1, which Potency is on record?
**A.** Its Potency is inconclusive [inhibitor, single point].

**Q.** Which Potency does the source give for COc1cccc(-c2cc(F)ccc2[C@H]2Cc3nc(N)nc(C)c3C(=O)N2)n1 here?
**A.** The Potency was inconclusive [inhibitor, single point].

**Q.** COc1ccc(NC(=O)CSc2nc3ccccc3n2Cc2cccc(OC)c2)cc1 was tested. Which Potency did it give?
**A.** Its Potency is inconclusive [inhibitor, full curve].

**Q.** COc1ccccc1NC(=O)Cn1c(=O)n(Cc2nc(-c3ccccc3)no2)c(=O)c2ccccc21 was tested. Which Potency did it give?
**A.** Its Potency is inconclusive [inhibitor, full curve].

**Q.** How did the Potency turn out when COc1ccc(-c2cn3cccnc3n2)cc1NC(=O)c1cc(C)cc(C)c1 was run?
**A.** The Potency was inconclusive [inhibitor, single point].

**Q.** For CCOC(=O)c1cc(S(=O)(=O)N2CCN(c3cc(Cl)ccc3C)CC2)[nH]n1, which Potency is on record?
**A.** Its Potency is active: 26.8 µM.

**Q.** How did the Potency turn out when Cc1ccc([S+](=O)([O-])NC2CC(C)(C)CC(C)(C)C2)cc1 was run?
**A.** Its Potency is inconclusive [inhibitor, single point].

**Q.** For CCOc1ccc(C(=O)NCCS(=O)(=O)N2CCN(c3ccccc3F)CC2)cc1OCC, which Potency is on record?
**A.** The Potency was inconclusive [inhibitor, full curve].

**Q.** Which Potency does the source give for Cc1cccc2nc(-c3ccccn3)c(Nc3ccccc3)n12 here?
**A.** The Potency was inconclusive [inhibitor, single point].

**Q.** Cc1noc(/C=C/c2cccs2)c1S(=O)(=O)N1CCC(C(=O)NCc2ccc(Cl)cc2)CC1 was tested. Which Potency did it give?
**A.** The Potency was active: 2.39 µM.

**Q.** How did the Potency turn out when O=C(CSc1nc(-c2ccc(F)cc2)[nH]c1-c1ccc(F)cc1)Nc1ccc2c(c1)OCO2 was run?
**A.** The Potency was active: 2.13 µM.

**Q.** With CCOc1cc(CNC(=O)c2ccc(C)c(NC(=O)c3nsc4ccccc34)c2)ccc1OC as the compound, how does the Potency read?
**A.** The Potency was “inactive”.

**Q.** For COc1ccc(NC(=O)CSc2nc(-c3cccs3)cc(C(F)(F)F)n2)cc1OC, which Potency is on record?
**A.** The Potency was “inactive”.

**Q.** Which Potency does the source give for CCOc1ccccc1NC(=O)Cn1c(=O)n(CCC(=O)NCc2ccc3c(c2)OCO3)c(=O)c2ccccc21 here?
**A.** Its Potency is active: 0.425 µM.

**Q.** Which Potency does the source give for Cc1ccc(NC(=O)Cn2c(=O)n(CCC(=O)N3CCc4ccccc4C3)c(=O)c3ccccc32)c(C)c1 here?
**A.** Its Potency is “inactive”.

**Q.** Which Potency does the source give for Cc1cc(C)c(Cn2c3ccccc3c3cnn(CC(=O)NCc4ccccn4)c(=O)c32)c(C)c1 here?
**A.** The Potency was inconclusive [inhibitor, partial curve, poor fit].

**Q.** With COCCCNC(=O)CCC(=O)NNc1nc2ccccc2c2nc(-c3ccccc3)nn12 as the compound, how does the Potency read?
**A.** Its Potency is inconclusive [inhibitor, partial curve, poor fit].

**Q.** Which Potency does the source give for COC(=O)Cc1cccc(NC(=O)C2=C(C)NC(Nc3nc4ccccc4o3)=NC2c2ccccc2Cl)c1 (centres undefined) here?
**A.** The Potency was inconclusive [inhibitor, partial curve, poor fit].

**Q.** How did the Potency turn out when CCc1nnc(NC(=O)CSc2nc3c([nH]c4ccccc43)c(=O)n2-c2ccc(OC)cc2)s1 was run?
**A.** Its Potency is inconclusive [inhibitor, full curve, poor fit].

**Q.** Which Potency does the source give for CCOc1ccc(S(=O)(=O)NCc2ccc3c(c2)CCN3C(=O)c2ccc(C)cc2)cc1 here?
**A.** The Potency was inconclusive [inhibitor, full curve].

**Q.** With Nc1c(-c2nc(-c3ccc4c(c3)OCO4)cs2)c2ccccn2c1C(=O)c1ccccc1 as the compound, how does the Potency read?
**A.** The Potency was “inactive”.

**Q.** Which Potency does the source give for CCOC(=O)c1ccc(N2C(=O)c3n[nH]c(-c4ccco4)c3C2c2ccc(C)cc2)cc1 (centres undefined) here?
**A.** The Potency was “inactive”.

**Q.** For COc1cc(C(=O)NC(c2ccc(Cl)cc2)c2cc(Cl)c3cccnc3c2O)cc(OC)c1OC (centres undefined), which Potency is on record?
**A.** Its Potency is “inactive”.

**Q.** Which Potency does the source give for CCC(Sc1nc2nccnc2c(=O)n1Cc1ccc(C)cc1)C(=O)NC1CCCCC1 (centres undefined) here?
**A.** Its Potency is inconclusive [inhibitor, single point].

**Q.** With CCOC(=O)c1ccc(N(C)c2csc(-c3ccccc3)n2)cc1 as the compound, how does the Potency read?
**A.** Its Potency is inconclusive [inhibitor, full curve].

**Q.** For COc1ccc(Cl)cc1NC(=O)CN1C(=O)CSc2ccc(S(=O)(=O)N3CCCC3)cc21, which Potency is on record?
**A.** Its Potency is inconclusive [inhibitor, single point].

**Q.** For Cc1ccc(-n2c(SCc3ccccc3F)nc3[nH]ncc3c2=O)cc1C, which Potency is on record?
**A.** Its Potency is active: 16.9 µM.

**Q.** COc1ccc(NC(=O)CSc2ncc(-c3ccc(Cl)cc3)[nH]2)cc1OC was tested. Which Potency did it give?
**A.** Its Potency is inconclusive [inhibitor, partial curve].
